Reference: US10299477B2 (priority 2015, dated 2019)

tested on: Colletotrichum orbiculare; details: 250 ppm, sprayed 2.5 ml/pot before inoculation; evaluated 6-10 days after inoculation

| SMILES | Test H (control value class, anthracnose on cucumber) |
| --- | --- |
| COc1cc(F)c(-c2c(-c3cc(OC)ccc3Cl)cc(C)c(=O)n2C)c(F)c1 [Compound 724] | H (H shows more than 50% of control values) |
| COc1ccc(Cl)c(-c2cc(Br)c(=O)n(C)c2-c2c(F)cc(F)cc2F)c1 [Compound 725] | H (H shows more than 50% of control values) |
| COc1ccc(Cl)c(-c2cc(C)c(=O)n(C)c2-c2c(F)cc(F)cc2F)c1 [Compound 726] | H (H shows more than 50% of control values) |
| CCn1c(-c2c(F)cc(OCC(F)(F)F)cc2F)c(-c2cccc(F)c2Cl)cc(Cl)c1=O [Compound 727] | H (H shows more than 50% of control values) |
| CCn1c(-c2c(F)cccc2F)c(-c2cc(OC)cc(OC)c2Cl)ccc1=O [Compound 728] | H (H shows more than 50% of control values) |
| CCn1c(-c2c(F)cccc2F)c(-c2cc(F)cc(F)c2F)ccc1=O [Compound 729] | H (H shows more than 50% of control values) |
| CCOc1cc(F)c(-c2c(-c3ccccc3Cl)ccc(=O)n2C)c(F)c1 [Compound 730] | H (H shows more than 50% of control values) |
| Cc1cc(-c2ccccc2Cl)c(-c2c(F)cc(F)cc2F)n(C)c1=O [Compound 731] | H (H shows more than 50% of control values) |
| COc1cc(F)c(-c2c(-c3ccccc3Cl)cc(Br)c(=O)n2C)c(F)c1 [Compound 732] | H (H shows more than 50% of control values) |
| COc1cc(F)c(-c2c(-c3ccccc3Cl)cc(C)c(=O)n2C)c(F)c1 [Compound 733] | H (H shows more than 50% of control values) |
| CCn1c(-c2c(F)cccc2F)c(-c2ccc(OC)cc2Cl)cc(Cl)c1=O [Compound 736] | H (H shows more than 50% of control values) |
| CCn1c(-c2c(F)cccc2F)c(-c2ccc(OC)cc2Cl)cc(Br)c1=O [Compound 737] | H (H shows more than 50% of control values) |
| CCn1c(-c2c(F)cc(F)cc2F)c(-c2cc(F)ccc2Cl)ccc1=O [Compound 738] | H (H shows more than 50% of control values) |
| CCn1c(-c2c(F)cc(OC)cc2F)c(-c2cc(F)ccc2Cl)ccc1=O [Compound 739] | H (H shows more than 50% of control values) |
| COc1ccc(-c2ccc(=O)n(C)c2-c2c(F)cccc2F)c(Cl)c1 [Compound 740] | H (H shows more than 50% of control values) |
| COc1ccc(-c2cc(Br)c(=O)n(C)c2-c2c(F)cccc2F)c(Cl)c1 [Compound 744] | L (L shows 50% or less of control values) |
| CCn1c(-c2c(F)cccc2F)c(-c2cccc(F)c2Cl)cc(Br)c1=O [Compound 745] | H (H shows more than 50% of control values) |
| CCn1c(-c2c(F)cc(F)cc2F)c(-c2ccc(OC)cc2Cl)cc(Cl)c1=O [Compound 746] | H (H shows more than 50% of control values) |
| CCn1c(-c2c(F)cc(F)cc2F)c(-c2ccc(OC)cc2Cl)cc(Br)c1=O [Compound 747] | H (H shows more than 50% of control values) |
| CCn1c(-c2c(F)cc(OC)cc2F)c(-c2ccc(OC)cc2Cl)cc(Cl)c1=O [Compound 748] | L (L shows 50% or less of control values) |

same assay, conditions: in vivo

| SMILES | Test H (control value class) |
| --- | --- |
| COc1ccc(-c2cc(C)c(=O)n(C)c2-c2c(F)cccc2F)c(Cl)c1 [Compound 749] | L (key: H shows more than 50% of control values; L shows 50% or less of control values) |
| CCn1c(-c2c(F)cc(F)cc2F)c(-c2ccc(OC)cc2Cl)cc(C)c1=O [Compound 750] | H (key: H shows more than 50% of control values; L shows 50% or less of control values) |
| CCn1c(-c2c(F)cccc2F)c(-c2cccc(F)c2Cl)cc(C)c1=O [Compound 752] | H (key: H shows more than 50% of control values; L shows 50% or less of control values) |
| Cc1cc(-c2cccc(F)c2Cl)c(-c2c(F)cccc2F)n(C)c1=O [Compound 754] | H (key: H shows more than 50% of control values; L shows 50% or less of control values) |
| CCn1c(-c2c(F)cc(OC)cc2F)c(-c2ccc(OC)cc2Cl)ccc1=O [Compound 755] | H (key: H shows more than 50% of control values; L shows 50% or less of control values) |
| COc1ccc(-c2ccc(=O)n(C)c2-c2c(F)cc(F)cc2F)c(Cl)c1 [Compound 756] | H (key: H shows more than 50% of control values; L shows 50% or less of control values) |
| Cn1c(-c2c(F)cc(F)cc2F)c(-c2cc(F)ccc2Cl)cc(Br)c1=O [Compound 757] | H (key: H shows more than 50% of control values; L shows 50% or less of control values) |
| Cc1cc(-c2cc(F)ccc2Cl)c(-c2c(F)cc(F)cc2F)n(C)c1=O [Compound 758] | H (key: H shows more than 50% of control values; L shows 50% or less of control values) |
| COc1cc(F)c(-c2c(-c3cc(F)ccc3Cl)cc(C)c(=O)n2C)c(F)c1 [Compound 759] | H (key: H shows more than 50% of control values; L shows 50% or less of control values) |
| COc1cc(F)c(-c2c(-c3cc(F)ccc3Cl)ccc(=O)n2C)c(F)c1 [Compound 760] | H (key: H shows more than 50% of control values; L shows 50% or less of control values) |
| COc1cc(F)c(-c2c(-c3cc(F)ccc3Cl)cc(Cl)c(=O)n2C)c(F)c1 [Compound 761] | H (key: H shows more than 50% of control values; L shows 50% or less of control values) |
| CCn1c(-c2c(F)cc(F)cc2F)c(-c2ccccc2)ccc1=O [Compound 762] | H (key: H shows more than 50% of control values; L shows 50% or less of control values) |
| CCn1c(-c2c(F)cc(OC)cc2F)c(-c2ccccc2)ccc1=O [Compound 763] | H (key: H shows more than 50% of control values; L shows 50% or less of control values) |
| COc1cc(F)c(-c2c(-c3ccc(OC)cc3Cl)ccc(=O)n2C)c(F)c1 [Compound 765] | H (key: H shows more than 50% of control values; L shows 50% or less of control values) |
| COc1ccc(-c2cc(Br)c(=O)n(C)c2-c2c(F)cc(F)cc2F)c(Cl)c1 [Compound 767] | H (key: H shows more than 50% of control values; L shows 50% or less of control values) |
| CCn1c(-c2c(F)cc(F)cc2F)c(-c2cc(OC)ccc2Cl)cc(Br)c1=O [Compound 768] | H (key: H shows more than 50% of control values; L shows 50% or less of control values) |
| CCn1c(-c2c(F)cc(F)cc2F)c(-c2cc(OC)ccc2Cl)cc(C)c1=O [Compound 769] | H (key: H shows more than 50% of control values; L shows 50% or less of control values) |

| SMILES | Test H (control value class) |
| --- | --- |
| CCn1c(-c2c(F)cc(OC)cc2F)c(-c2cc(OC)ccc2Cl)ccc1=O [Compound 770] | H (key: H shows more than 50% of control values; L shows 50% or less of control values) |
| CCn1c(-c2c(F)cc(OC)cc2F)c(-c2cc(OC)ccc2Cl)cc(Cl)c1=O [Compound 772] | H (key: H shows more than 50% of control values; L shows 50% or less of control values) |
| CCn1c(-c2c(F)cc(OC)cc2F)c(-c2ccccc2)cc(Cl)c1=O [Compound 773] | H (key: H shows more than 50% of control values; L shows 50% or less of control values) |
| CCn1c(-c2c(F)cc(F)cc2F)c(-c2ccccc2)cc(Br)c1=O [Compound 774] | H (key: H shows more than 50% of control values; L shows 50% or less of control values) |
| COc1cc(F)c(-c2c(-c3ccc(OC)cc3Cl)cc(Cl)c(=O)n2C)c(F)c1 [Compound 776] | L (key: H shows more than 50% of control values; L shows 50% or less of control values) |
| Cn1c(-c2c(F)cc(F)cc2F)c(-c2ccccc2)ccc1=O [Compound 777] | H (key: H shows more than 50% of control values; L shows 50% or less of control values) |
| COc1cc(F)c(-c2c(-c3ccccc3)ccc(=O)n2C)c(F)c1 [Compound 778] | H (key: H shows more than 50% of control values; L shows 50% or less of control values) |
| Cn1c(-c2c(F)cc(F)cc2F)c(-c2ccccc2)cc(Cl)c1=O [Compound 779] | H (key: H shows more than 50% of control values; L shows 50% or less of control values) |
| COc1cc(F)c(-c2c(-c3ccccc3)cc(Cl)c(=O)n2C)c(F)c1 [Compound 781] | H (key: H shows more than 50% of control values; L shows 50% or less of control values) |
| COc1cc(F)c(-c2c(-c3ccccc3)cc(Br)c(=O)n2C)c(F)c1 [Compound 782] | H (key: H shows more than 50% of control values; L shows 50% or less of control values) |
| COc1cccc(-c2ccc(=O)n(C)c2-c2c(F)cccc2F)c1Cl [Compound 784] | H (key: H shows more than 50% of control values; L shows 50% or less of control values) |
| COc1cccc(-c2cc(Cl)c(=O)n(C)c2-c2c(F)cccc2F)c1Cl [Compound 785] | H (key: H shows more than 50% of control values; L shows 50% or less of control values) |
| COc1cccc(-c2cc(Br)c(=O)n(C)c2-c2c(F)cccc2F)c1Cl [Compound 786] | H (key: H shows more than 50% of control values; L shows 50% or less of control values) |
| COc1cc(F)c(-c2c(-c3cccc(OC)c3Cl)cc(Cl)c(=O)n2C)c(F)c1 [Compound 788] | H (key: H shows more than 50% of control values; L shows 50% or less of control values) |
| CCn1c(-c2c(F)cc(F)cc2F)c(-c2cc(F)cc(F)c2)ccc1=O [Compound 789] | H (key: H shows more than 50% of control values; L shows 50% or less of control values) |
| CCn1c(-c2c(F)cc(OC)cc2F)c(-c2cc(F)cc(F)c2)ccc1=O [Compound 790] | H (key: H shows more than 50% of control values; L shows 50% or less of control values) |
